# Measurements reported in PubChem BioAssay AID588591 (National Center for Advancing Translational Sciences (NCATS), 2011).
# In all, about 390,000 compounds went through this assay and about 4,700 (1.2%) were called active. The inconclusive results got no clear call from the source; some entries with a clear call stand among them for comparison. Calls follow the shape of the dose curve; as a rule, active = well fitted inhibition curve with a large enough effect; inconclusive = small, poorly fitted or top-dose-only effect, or another doubt; inactive = no such curve, though single readings can be large or run the other way. Potencies of inconclusive entries are doubtful fits and often do not repeat.
# Target: DNA polymerase eta (Homo sapiens) (UniProt Q9Y253)
# UniProt Q9Y253, sequence (Q9Y253 whole entry, looked up): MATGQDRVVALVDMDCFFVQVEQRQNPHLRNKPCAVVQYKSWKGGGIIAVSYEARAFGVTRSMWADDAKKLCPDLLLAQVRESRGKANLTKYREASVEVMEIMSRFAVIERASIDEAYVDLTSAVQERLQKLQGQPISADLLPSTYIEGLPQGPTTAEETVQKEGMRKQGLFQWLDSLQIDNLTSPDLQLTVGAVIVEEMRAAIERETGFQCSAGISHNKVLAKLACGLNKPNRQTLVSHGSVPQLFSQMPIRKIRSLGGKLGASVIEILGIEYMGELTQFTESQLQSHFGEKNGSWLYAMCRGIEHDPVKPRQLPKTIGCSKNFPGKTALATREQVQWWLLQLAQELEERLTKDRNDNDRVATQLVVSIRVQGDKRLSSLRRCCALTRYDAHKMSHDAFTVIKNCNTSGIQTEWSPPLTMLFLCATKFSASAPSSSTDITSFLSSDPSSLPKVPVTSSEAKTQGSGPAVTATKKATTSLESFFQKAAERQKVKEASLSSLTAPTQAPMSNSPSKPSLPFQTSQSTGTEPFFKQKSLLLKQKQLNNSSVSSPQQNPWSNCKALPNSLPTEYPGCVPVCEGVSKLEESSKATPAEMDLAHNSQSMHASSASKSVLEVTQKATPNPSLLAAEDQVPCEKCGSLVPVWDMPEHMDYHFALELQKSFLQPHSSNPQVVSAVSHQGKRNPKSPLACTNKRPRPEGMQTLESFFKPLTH
# Assay: qHTS for Inhibitors of Polymerase Eta
# Conditions: recombinant Pol eta, fluorescent DNA replication assay; series mostly up to 114 µM
# Procedure, shortened: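 Pol eta at 10 nM preincubated with compounds 15 min at room temperature; reaction started with fluorescent substrate (50 nM final) and read kinetically at 0 and 10 min.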
# Potency is read from the fitted curve at half-maximal effect; tags tell the direction and shape of the fitted curve.
row,SMILES,Potency
1,Cc1ccc(NC(=O)CSc2nc(-c3ccco3)nc3cc(=O)[nH]n23)c(Cl)c1,active: 44.7 µM
2,C[C@H]1CN([C@@H](C)CO)C(=O)CCCn2cc(nn2)CO[C@@H]1CN(C)S(=O)(=O)c1cccc(F)c1,inactive
3,O=C(NCCc1ccccc1)c1ccc2nc(-c3ccco3)c(-c3ccco3)nc2c1,"inconclusive: 11.2 µM [inhibitor, full curve, poor fit]"
4,C=CCOc1ccc(/C=C2\SC(=Nc3cccnc3)NC2=O)cc1,"inconclusive: 44.7 µM [inhibitor, partial curve, poor fit]"
5,Cc1cccc(C)c1NC(=O)CSc1nccn1C,inactive
6,NS(=O)(=O)c1ccc(Nc2nc3ccccc3nc2NS(=O)(=O)c2cccc([N+](=O)[O-])c2)cc1,"inconclusive: 31.6 µM [inhibitor, partial curve, poor fit]"
7,CCOc1cccc(C(=O)NC(=S)Nc2cccc(NC(=O)c3ccccc3Cl)c2)c1,"inconclusive: 79.4 µM [inhibitor, partial curve, poor fit]"
8,COC(=O)c1c(NC(=S)Nc2ccc(CC(=O)O)cc2)sc(C)c1C,"inconclusive: 35.5 µM [inhibitor, partial curve, poor fit]"
9,c1ccc(Cn2nnnc2C(c2cccs2)N2CCc3ccccc3C2)cc1 (stereo not given),"inconclusive: 89.1 µM [inhibitor, partial curve, poor fit]"
10,CCN1CCN(c2cc(C)c3cc(NC(=O)c4cc(OC)cc(OC)c4)ccc3n2)CC1,"inconclusive: 63.1 µM [inhibitor, partial curve, poor fit]"
11,COc1cc(/C=N/NC(=O)c2ccc(N3CCCC3=O)cc2)ccc1O,"inconclusive: 31.6 µM [inhibitor, single point]"
12,Cc1ccc(C(=O)Nc2cccc(C(F)(F)F)c2)cc1Nc1ccccn1,inactive
13,Cc1ccc(S(=O)(=O)N2CCN(C(=O)C3Cc4ccccc4CN3C(=O)c3ccco3)CC2)cc1 (stereo not given),"inconclusive: 8.91 µM [inhibitor, full curve, poor fit]"
14,Cc1ccccc1NC(=S)N1CCN(Cc2ccc3c(c2)OCO3)CC1,inactive
15,O=C(NC(=S)Nc1ccc(Cl)cc1)c1ccccc1,inactive
16,CCN1CCN(Cc2ccc(NC(=O)c3ccc(C)c(NC(=O)c4nccn4C)c3)cc2C(F)(F)F)CC1,inactive
17,Brc1ccccc1C1Nc2cccc3cccc(c23)N1,"inconclusive: 79.4 µM [inhibitor, partial curve, poor fit]"
18,Cc1cccc(N2CCN(S(=O)(=O)c3c(C)nc4scc(C)n4c3=O)CC2C)c1 (stereo not given),"inconclusive: 89.1 µM [inhibitor, partial curve, poor fit]"
19,Cc1ccc(-n2ncc3c2CCCC3NC(=O)c2ccoc2)cc1C (stereo not given),"inconclusive: 100 µM [inhibitor, partial curve, poor fit]"
20,COc1ccc(-c2sc3cc(OC)c(OC)cc3c2C#CCCO)cc1,"inconclusive: 50.1 µM [inhibitor, partial curve, poor fit]"
21,Cc1ccc(Cn2c(=O)n(Cc3nc(-c4ccccc4)no3)c(=O)c3cc4c(cc32)OCO4)cc1,inactive
22,O=C(CSc1nnc(-c2ccco2)n1Cc1ccccc1)OC1CCCCC1,"inconclusive: 35.5 µM [inhibitor, partial curve, poor fit]"

row,SMILES,Potency
1,CCCS(=O)(=O)N1CCCC(C(=O)Nc2ccc3c(c2)CCC3)C1 (stereo not given),"inconclusive: 89.1 µM [inhibitor, partial curve, poor fit]"
2,Cc1ccccc1COC(=O)CNC(=O)c1sc2ccccc2c1Cl,"inconclusive: 2.24 µM [inhibitor, partial curve, poor fit]"
3,COc1ccccc1CNc1ccc([N+](=O)[O-])cc1C,"inconclusive: 79.4 µM [inhibitor, partial curve, poor fit]"
4,CC(=O)c1ccc(S(=O)(=O)NCCC(=O)NCCc2c[nH]c3ccccc23)cc1,"inconclusive: 39.8 µM [inhibitor, partial curve]"
5,CCOc1ccc(CNC(=O)CCn2nc(C)c3c(C)n(-c4ccccc4)nc3c2=O)cc1,inactive
6,O=C1CCC/C(=N/NC(=O)c2cc(NS(=O)(=O)c3cccs3)cc(NS(=O)(=O)c3cccs3)c2)C1,"inconclusive: 39.8 µM [inhibitor, partial curve]"
7,Oc1ccc(/C=N/NC(=S)Nc2cccnc2)cc1O,"inconclusive: 15.8 µM [inhibitor, full curve, poor fit]"
8,CC(=O)c1cccc(NC(=O)CCc2c(C)nc3c(-c4ccc(F)cc4)c(C)nn3c2C)c1,inactive
9,Cc1occc1-c1nnc(SCC(=O)NCc2ccco2)n1CC(C)C,active: 25.1 µM
10,CC1(C)Cc2c(c(N3CCOCC3)nc3sc4c(=O)[nH]cnc4c23)CS1,"inconclusive: 35.5 µM [inhibitor, partial curve, poor fit]"
11,COc1cccc(C=NNC(=S)NN=Cc2cccc(OC)c2OC)c1OC,"inconclusive: 50.1 µM [inhibitor, partial curve, poor fit]"
12,CCCCCn1c(NCc2ccccc2OC)nc2ccccc21,"inconclusive: 56.2 µM [inhibitor, partial curve, poor fit]"
13,CC(=O)c1ccc(S(=O)(=O)N2CCN(c3nn(C)c(=O)n(C)c3=O)CC2)cc1,"inconclusive: 28.2 µM [inhibitor, partial curve, poor fit]"
14,COC(=O)[C@]1(C)N[C@H](CN(C)S(=O)(=O)c2ccc(-c3ccccc3)cc2)[C@@H]2C(=O)N(C)C(=O)[C@@H]21,inactive
15,Cc1cccc(NC(=O)CN2C(=O)S/C(=C\c3ccc(-c4cccc(C(=O)O)c4C)o3)C2=O)c1,active: 35.5 µM
16,Cc1cc(C)c(C(=O)/C=C/c2ccc(C(C)C)cc2)c(=O)[nH]1,"inconclusive: 44.7 µM [inhibitor, partial curve, poor fit]"
17,C=CCn1c(=O)c2ccccc2n2c(SCC(=O)/C(C#N)=C(\C)N)nnc12,"inconclusive: 25.1 µM [inhibitor, full curve]"
18,C=CCN(CC=C)C(=O)c1ccc(OC2CCN(Cc3ccccn3)CC2)cc1,inactive
19,CCCCOc1ccc(C(=O)NCC2(N3CCN(C)CC3)CCCCC2)cc1,inactive
20,Cc1cc(=O)oc2cc(OCC(=O)Nc3ccc4[nH]c(=O)[nH]c4c3)ccc12,"inconclusive: 28.2 µM [inhibitor, partial curve, poor fit]"
21,Cn1c(=O)c(N)c2c3c(c(Br)ccc31)C(=O)c1ccccc1-2,"inconclusive: 17.8 µM [inhibitor, partial curve, poor fit]"
22,CC(=O)Nc1ccc2nc(NC(=O)COc3ccc([N+](=O)[O-])cc3)sc2c1,inactive

row,SMILES,Potency
1,COC(=O)CS(=O)(=O)c1ccc2c(c1)CC(=O)N2,"inconclusive: 3.16 µM [inhibitor, partial curve, poor fit]"
2,CCOc1ccc(S(=O)(=O)N(C)CC(=O)NCc2ccco2)cc1,inactive
3,N#CC1=C(S)N(c2ccccc2)C(c2cccs2)NC1=O (stereo not given),inactive
4,CC(C)(C)c1ccc(C(O)CCCN2CCC(C(O)(c3ccccc3)c3ccccc3)CC2)cc1 (stereo not given),"inconclusive: 22.4 µM [inhibitor, single point]"
5,CCOc1cc(/C=C2\NC(=S)N(C)C2=O)ccc1OCc1ccc(C(=O)O)cc1,"inconclusive: 89.1 µM [inhibitor, single point]"
6,Cc1c(NC(=O)COC(=O)c2ccc(Cl)nc2)c(=O)n(-c2ccccc2)n1C,inactive
7,CN(C)C(CNC(=O)c1ccc(-c2ccccc2)cc1)c1ccccc1 (stereo not given),"inconclusive: 89.1 µM [inhibitor, partial curve, poor fit]"
8,CCc1[nH]nc(C(=O)N/N=C/c2ccncc2)c1C,inactive
9,CC(=O)N1CCC2(CC1)C/C(=N\NC(=S)Nc1ccc(C)cc1)c1cc(O)ccc1O2,"inconclusive: 35.5 µM [inhibitor, single point]"
10,COc1ccccc1CNC(=O)Cn1c(=O)oc2cc(S(=O)(=O)N3CCC(C)CC3)ccc21,"inconclusive: 89.1 µM [inhibitor, single point]"
11,O=C(N/N=C/c1nn(-c2ccccc2)cc1-c1ccccc1)c1ccncc1,"inconclusive: 31.6 µM [inhibitor, partial curve, poor fit]"
12,C=CCn1c(CNC(=O)CCC)nc2ccccc21,inactive
13,CC(C)[C@H](NC(=O)c1ccccc1Cl)C(=O)Nc1nc(-c2ccccn2)cs1,inactive
14,CCCS(=O)(=O)N1CCCC(C(=O)NCc2ccco2)C1 (stereo not given),"inconclusive: 25.1 µM [inhibitor, partial curve]"
15,CC(C)N(C(=O)Cn1cc(SCC(=O)NCc2ccco2)c2ccccc21)C(C)C,"inconclusive: 35.5 µM [inhibitor, partial curve, poor fit]"
16,O=C(NNC(=O)c1ccccc1F)c1ccc2nc[nH]c2c1,"inconclusive: 50.1 µM [inhibitor, partial curve, poor fit]"
17,O=C1CC(c2ccc(Cl)cc2)c2c(O)cc(O)cc2O1 (stereo not given),inactive
18,O=C(OCc1cc(=O)n2c(n1)sc1ccccc12)c1cccc(O)c1,"inconclusive: 2.51 µM [inhibitor, full curve, poor fit]"
19,CCN(CC)C(CNS(=O)(=O)c1ccc(Cl)cc1)c1ccccc1 (stereo not given),inactive
20,CCN(CC)c1ccc(C2C3CCCCC3(O)CCN2C(=O)c2cccs2)cc1 (stereo not given),"inconclusive: 79.4 µM [inhibitor, single point]"
21,Cc1ccc[n+](-c2[nH]c(=O)sc2/C=N/NC(=O)c2ccccc2[O-])c1,"inconclusive: 31.6 µM [inhibitor, partial curve, poor fit]"
